This is an account of results in PubChem BioAssay AID1346428 (National Center for Advancing Translational Sciences (NCATS), 2018).

SMILES strings stand for the structures. Values joined by “and” are separate entries in the source; they are usually repeats but may differ in a detail not shown here. Identical values can stand only once. About 1,200 (2.5%) of roughly 48,000 compounds were called active. Inconclusive results (about 2%) are left out.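 Rule for the calls: active = activation of at least 60% and not above a set upper limit (about 1 call in 100 departs from these limits); inconclusive = activation of 40% to 60%, or above that upper limit; inactive = activation under 40%.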 Some of the results follow. Some structures have more than one record in an assay (separate samples or runs), and their calls can disagree.

Chain of UniProt O75388 (O75388 whole entry, looked up): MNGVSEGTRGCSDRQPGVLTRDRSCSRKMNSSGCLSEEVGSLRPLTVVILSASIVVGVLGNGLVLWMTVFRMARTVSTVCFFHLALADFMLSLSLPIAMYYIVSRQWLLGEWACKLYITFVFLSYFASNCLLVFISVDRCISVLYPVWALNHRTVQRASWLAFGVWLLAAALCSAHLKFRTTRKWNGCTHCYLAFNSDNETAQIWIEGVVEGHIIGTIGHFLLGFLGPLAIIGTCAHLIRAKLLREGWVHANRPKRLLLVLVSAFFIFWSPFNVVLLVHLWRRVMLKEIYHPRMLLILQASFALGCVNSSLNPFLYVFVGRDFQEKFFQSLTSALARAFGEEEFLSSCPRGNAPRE

For this test, the target named is Probable G-protein coupled receptor 32 (Homo sapiens) (UniProt O75388). Put plainly: qHTS for Agonists of Human Resolvin D1 Receptor DRV1. Note: 0% is about no effect. Particulars: CHO-K1 GPR32 beta-arrestin PathHunter luminescence, 90 min; at 76.9 µM; stronger effect = higher value; zero percent set by DMSO-only wells. Put shortly:
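Luminescent readout of beta-Gal complementation quantifies ligand-induced beta-arrestin association with GPR32 in CHO-K1 cells; 90 min compound incubation at 37 °C, detection 1 h at room temperature.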
For orientation: In qHTS, concentration-response curves come from the screen itself.
On to `COc1cc(C2C=C(C(=O)O)Nc3ncnn32)ccc1O` (stereo not drawn), for which the activation is inactive: 3.02%.
The same measure for `COc1ccc(Cl)cc1NC(=O)Cn1c(=O)n2nc(-c3ccccc3)nc2c2ccccc21`: inactive: -6.46%.
The same measure for `COc1cccc(NC(=O)Cn2c(=O)n(CCC(=O)NCc3ccccc3OC)c(=O)c3ccccc32)c1`: inactive: 0.337%; for `Cc1ccc(NC(=O)Cn2cc3c(n2)CCCC3)cc1Cl`: inactive: -8.38%; for `COc1ccc(C)c2sc(N(Cc3cccnc3)C(=O)c3cccs3)nc12`: inactive: -22.4%.
Consider `CCN1CCc2c(sc(-n3cccc3)c2C(C)NC(=O)Nc2ccc(C(=O)OC)cc2)C1` (stereo not drawn), for which the activation is inactive: -13.9%.
The figure for `O=C(Nc1cccc(F)c1)c1cnc2sc(N3CCCC3)nn2c1=O` is inactive: 0.837%; for `COc1ccc(-c2csc(-c3c(N)c(C(=O)c4ccc(OC)c(OC)c4)n4ccccc34)n2)cc1` it is inactive: 4.95%; for `COc1ccc(CNS(=O)(=O)c2ccc(-c3cc(C(F)(F)F)on3)s2)cc1OC` it is inactive: -1.24%.
For `COc1ccc(CNC(=O)c2nn(C)c3c2CSc2ccccc2-3)cc1`, the activation was inactive: -15.1%.
The figure for `COC(=O)c1c(C)oc2ccc(N(C(=O)c3ccncc3)S(=O)(=O)c3ccc(Br)cc3)cc12` is inactive: 11.3%.
In the case of `COc1ccc(NC(=O)c2ccco2)cc1NC(=O)c1ccccc1[N+](=O)[O-]`, the activation was inactive: -31.4%.
Consider `Cc1ccc(NC(=O)Cn2c(=O)n(Cc3ccccc3)c(=O)c3c(C)c(C(=O)N(C)C)sc32)c(C)c1`, for which the activation was inactive: -8.33%.
For `COc1ccc(N(C)S(=O)(=O)c2ccc3c(c2)CCN3C(=O)CCC(=O)O)cc1`, the activation was inactive: -1.09%.
On to `CCOC(=O)c1ccc(N2C(=O)c3n[nH]c(-c4ccco4)c3C2c2ccccc2OC)cc1` (stereo not drawn), for which the activation was inactive: 33.8%.
For `CCN1CCN(C(=O)N[C@@H](C(=O)N[C@@H]2C(=O)N3C(C(=O)O)=C(CSc4nnnn4C)CS[C@H]23)c2ccc(O)cc2)C(=O)C1=O`, the activation is inactive: 37.8%.
The same measure for `CCc1cccc(C)c1Nc1nn2c(=O)c3ccccc3nc2s1`: inactive: -24.4%.
The same measure for `O=C(NCCO[N+](=O)[O-])c1cccnc1`: inactive: 11.4%; for `Cc1cccc(OC(=O)CSc2nnc(-c3cccs3)o2)c1C`: inactive: -3.45%.
The same measure for `Cc1ccc(-n2ncc(C(=O)N3CCN(c4ccccc4F)CC3)c2C2CCN(C(=O)OC(C)(C)C)CC2)cc1C`: inactive: -12.9%; for `CSc1ncc(Cl)c(C(=O)Nc2c(C(=O)c3ccc(Cl)cc3)oc3ccccc23)n1`: inactive: -2.02%; for `CCOC(=O)c1c(S(=O)(=O)N2CCCC(C(=O)Nc3cccc(CC)c3)C2)c(C)n(CC)c1C` (stereo not drawn): inactive: -0.915%.
Consider `CCOC(=O)c1c(C)[nH]c(C)c1S(=O)(=O)NCC(=O)Nc1cccc(Cl)c1`, for which the activation was inactive: 7.73%.
The same measure for `Cc1c(NC(=O)Cc2ccc(Cl)cc2)cccc1-c1nc2cccnc2s1`: inactive: -9.35%.
As to `CCOc1ccc(CNC(=O)c2ccc(NC(=O)N3CCCCc4ccccc43)cc2)cc1`, the activation is inactive: -9.04%.
The figure for `Cc1c(CNC2CCCCCC2)c(C(=O)O)c(C)n1Cc1cccc(Cl)c1` is inactive: -17.4%.
The same measure for `Cc1cccc(CNC(=O)Cn2nc(C)c3nn(-c4ccc(Cl)cc4)c(C)c3c2=O)c1`: inactive: -11.3%.
The figure for `Cc1cc(C)cc(NC(=O)NCc2c(-n3cccc3)sc3c2CCCC3)c1` is inactive: -7.72%; for `O=C(CSc1nc(Nc2ccccc2)c2ccccc2n1)c1ccc(Cl)cc1` it is active: 108%; for `Cc1ccc(Cl)c(Nc2ccccc2C(=O)O)c1Cl` it is active: 103% and inactive: 20%.
Take `Cc1ccccc1Nc1c(-c2c[nH]c3ccccc23)nc2ccc(Cl)cn12`: the activation is inactive: 10.9%.
The figure for `COC(=O)c1scc(-c2ccc(C)cc2)c1S(=O)(=O)Nc1cc(C)c(Cl)cc1OC` is inactive: -17.9%; for `Clc1cccc(CNCCCSc2nnnn2-c2ccccc2)c1` it is inactive: -14.4%; for `CCCCOC(=O)c1ccc(NC(=O)c2ccc3c(c2)CCN3S(C)(=O)=O)cc1` it is inactive: 1.85%.
The figure for `Cc1cccc(C(c2sc3nc(-c4ccco4)nn3c2O)N2CCOCC2)c1` (stereo not drawn) is inactive: 31.4%; for `CC(=O)N1CCN(c2csc3ccc(Cl)cc3c2=O)CC1` it is inactive: -54.1%; for `Cc1ccc(NS(=O)(=O)c2ccc3c(c2)n(C)c(=O)n3C)c(C)c1` it is inactive: 6.25%.
The same measure for `Cc1cccc(N2CCN(C(=O)CCS(=O)(=O)c3ccc4c(c3)CC(=O)N4C)CC2C)c1` (stereo not drawn): inactive: -1.25%; for `Fc1cccc(CN2CCc3nc(Nc4ccc5c(c4)OCCO5)ncc3C2)c1F`: inactive: -2.38%.
`Cc1ccccc1S(=O)Cc1ccc(C(=O)NCc2ccccc2Cl)o1` (stereo not drawn): the activation is inactive: 12.7%.
Consider `Cc1ccc(CSC2=NC(C)(C)Nc3ccccc32)c(C)c1`, for which the activation is inactive: 47%.
The figure for `COc1ccc(-c2csc3ncnc(Nc4ccccc4)c23)cc1` is inactive: 12.6%.
The figure for `O=C(Cn1cc(C(=O)c2ccco2)c2ccccc21)Nc1ccccc1C(F)(F)F` is inactive: 34.8%; for `CCNc1nc2c(c(=O)n(C)c(=O)n2C)n1Cc1ccc(F)cc1` it is inactive: 27.4%.
The figure for `O=C(NCCc1cccs1)c1ccc(Cn2c(SCc3cccc(F)c3)nc3cccnc32)cc1` is inactive: -19%; for `COc1ccc(NC(=O)Cn2cc(C(=O)c3ccc(C)c(C)c3)c(=O)c3cc(OC)ccc32)cc1` it is inactive: -6.8%.
Turning to `COc1ccc(-c2noc(N3CCC(C(=O)N4CCN(c5cccc(OC)c5)CC4)CC3)n2)cc1`, the activation was inactive: 1.17%.
The same measure for `CCOc1ccccc1NC(=O)Cn1c(=O)oc2ccccc21`: inactive: -11.9%.
Take `CCOC(=O)c1c(-c2ccccc2)oc2ccc(OCc3ccccc3Br)cc12`: the activation is inactive: -1.34%.
The figure for `CCOc1cccc2sc(NC(=O)c3ccc(S(=O)(=O)N4CCCCC4C)cc3)nc12` (stereo not drawn) is inactive: -7.1%; for `CCN(c1cccc(C)c1)S(=O)(=O)c1cc2c(cc1C)n(C)c(=O)c(=O)n2C` it is inactive: -11.3%.
The figure for `Cc1nnc(NC(=O)c2nc(SC(C)C)ncc2Cl)s1` is inactive: 21.3%.
As to `CCOc1ccc(NC(=O)c2sc(-n3nc(C)c(Cc4ccc(Cl)cc4)c3C)nc2C)cc1`, the activation was inactive: -1.85%.
